Assay results: the BET-seq Pho4 binding data (Le et al. 2018)
The other results are listed elsewhere or left out. These are noisy estimates, calculated here from bound and input reads.

target: T1, Pho4 (S. cerevisiae) (UniProt P07270); experiment: relative binding free energy (BET-seq); higher = weaker binding; conditions: reference: library average
T1 sequence: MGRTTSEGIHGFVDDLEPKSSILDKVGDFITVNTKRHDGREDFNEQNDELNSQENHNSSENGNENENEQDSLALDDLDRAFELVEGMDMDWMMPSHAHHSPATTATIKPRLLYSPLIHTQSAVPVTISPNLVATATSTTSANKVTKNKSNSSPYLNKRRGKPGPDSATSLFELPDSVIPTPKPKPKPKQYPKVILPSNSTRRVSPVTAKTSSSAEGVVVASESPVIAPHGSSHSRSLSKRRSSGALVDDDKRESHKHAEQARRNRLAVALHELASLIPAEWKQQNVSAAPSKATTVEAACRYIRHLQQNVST

Sequence | relative binding free energy [kcal/mol]
TGAGGCACGTGTGCCG | -0.07
TGGAGCACGTGGGAAG | -0.04
GTGCGCACGTGGCCGG | -0.14
AAAGTCACGTGTGTAG | 0.18
GTTTGCACGTGCTTAA | 0.02
AGTACCACGTGTAGGA | 0.06
GGGATCACGTGAGTTC | 0.52
TGGTGCACGTGGTGTA | -0.12
GCGTTCACGTGATCGG | 0.48
GGAGTCACGTGTTGGA | 0.16
AGGTACACGTGGGCCT | 0.03
ATGTACACGTGTTGGT | 0.1
TTCGTCACGTGAGCGT | 0.16
AGTGTCACGTGAGAGA | 0.26
TGGTGCACGTGCTCTT | 0.05
ACTGGCACGTGATGGG | -0.06
TTTAACACGTGCGGTT | 0
TGCTGCACGTGACGGT | -0.04
ACTTTCACGTGAAGGT | 0.28
GGTTGCACGTGGCCGG | -0.08
TGCTTCACGTGGCGTA | 0.25

Sequence | relative binding free energy [kcal/mol]
GTGGTCACGTGCCAGG | 0.04
GAGAGCACGTGCGGGT | -0.09
AGTAGCACGTGGTGCT | -0.21
AGGTGCACGTGGGTTG | -0.19
AGGAACACGTGAGTTA | 0.25
GTCTACACGTGGTTTT | 0.1
ACTGTCACGTGGGGAA | -0.05
CTAATCACGTGATGTT | 0.2
GTGGGCACGTGGGGCA | -0.21
TTAAACACGTGGAGGT | -0.12
TTGTACACGTGTATCG | 0.02
TTTGTCACGTGATCAG | 0.1
CACGGCACGTGGGTTT | -0.09
AGAGGCACGTGCAAGG | -0.13
AAGGGCACGTGTTTAA | -0.17
TTCGTCACGTGGGTAA | -0.13
TTATGCACGTGGGGCG | -0.15
CGGGTCACGTGGAGTT | 0.15
TTTTACACGTGTCTAT | 0.11
GGTATCACGTGTTTTA | 0.12
GTGAGCACGTGGGTCT | -0.33

Sequence | relative binding free energy [kcal/mol]
TGGGTCACGTGTCGAT | 0.15
GTGTACACGTGATTTG | 0.3
TAAGGCACGTGTGCAT | -0.22
GACGTCACGTGTCGTG | 0.22
TGCGACACGTGTGGGC | 0
GGGGGCACGTGATATT | 0
TCAGGCACGTGGTTCG | -0.13
AGGATCACGTGTTGAG | 0.23
GAAGGCACGTGGATGT | -0.02
TAGTTCACGTGTAATG | 0.43
ATGTGCACGTGATGAT | 0.09
ACGTGCACGTGTTGGG | -0.06
AGGGACACGTGTTATG | -0.02
TTTGTCACGTGGTATG | 0.03
GTTTTCACGTGGTGGA | 0.35
AATGGCACGTGTCGTG | 0.03
TTTATCACGTGGCAGA | 0.13
TATAACACGTGGAAGG | 0.05
TAGTTCACGTGTGTAC | 0.31
GGGATCACGTGAGCTG | 0.44
TACGGCACGTGCTTGG | -0.23
